Results reported in publication PMC12820563, “FoxP3 forms a head-to-head dimer in vivo and stabilizes its multimerization on adjacent microsatellites”.
The other results are listed elsewhere or left out.

The sequences below were run against T1, MBP-FoxP1dN (Mus musculus, UniProt P58462 326-579) (assay: PD-seq (MBP pull-down with sequencing); 20 mM Tris-HCl pH 7.5, 100 mM NaCl, 1.5 mM MgCl2, 0.4 uM protein, 0.1 uM dsDNA library, 30 min, room temperature, amylose pull-down; high values mean tight binding). Conditions: protein: recombinant; tags: His6-MBP; chain copies: 2; dsDNA, one strand shown.
T1 sequence: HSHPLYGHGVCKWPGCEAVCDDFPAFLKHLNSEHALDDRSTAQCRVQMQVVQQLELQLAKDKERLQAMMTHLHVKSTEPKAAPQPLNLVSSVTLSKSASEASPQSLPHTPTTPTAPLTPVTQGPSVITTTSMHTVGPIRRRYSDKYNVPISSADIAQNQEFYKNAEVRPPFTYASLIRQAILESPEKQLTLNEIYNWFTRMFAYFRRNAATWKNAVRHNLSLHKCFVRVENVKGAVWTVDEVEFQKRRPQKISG
Outline: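 Amylose resin was used to capture complexes formed during 30 min at room temperature in Tris pH 7.5 buffer with NaCl and MgCl2 between 0.4 µM His6-MBP-tagged mouse FoxP3 or FoxP1 fragment lacking the N-terminus, expressed in E. coli, and 0.1 µM Klenow-filled double-stranded degenerate DNA library. After three washes, the DNA was released with proteinase K, barcoded by PCR and sequenced on Illumina. Binding is pooled-replicate reads-per-million enrichment, pull-down over input.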

Sequence | binding signal
GATGATTGTTCTCCCAGCTGATGAATTGAGCAAATCGAGTAAACAAATTTTCCTAATCTTTCTGTTCAAGCGCCATCTAC | 1.07 RPM ratio (pull-down/input)
GATGATTGTTCTCCCAGCTGATGAATTCTAGAGATCGAGTAAACAAATTTTCCTAATCTTTCTGTTCAAGCGCCATCTAC | 0.799 RPM ratio (pull-down/input)
GATGATTGTTCTCCCAGCTGATGAATTGAGTGTGTCGAGTAAACAAATTTTCCTAATCTTTCTGTTCAAGCGCCATCTAC | 1.06 RPM ratio (pull-down/input)
GATGATTGTTCTCCCAGCTGATGAATTGCCAAGTTCGAGTAAACAAATTTTCCTAATCTTTCTGTTCAAGCGCCATCTAC | 0.953 RPM ratio (pull-down/input)
GATGATTGTTCTCCCAGCTGATGAATTAATGCATTCGAGTAAACAAATTTTCCTAATCTTTCTGTTCAAGCGCCATCTAC | 1.67 RPM ratio (pull-down/input)
GATGATTGTTCTCCCAGCTGATGAATTTTTAAGGTCGAGTAAACAAATTTTCCTAATCTTTCTGTTCAAGCGCCATCTAC | 0.884 RPM ratio (pull-down/input)
GATGATTGTTCTCCCAGCTGATGAATTTTAGGGATCGAGTAAACAAATTTTCCTAATCTTTCTGTTCAAGCGCCATCTAC | 0.823 RPM ratio (pull-down/input)
GATGATTGTTCTCCCAGCTGATGAATTTACCGATTCGAGTAAACAAATTTTCCTAATCTTTCTGTTCAAGCGCCATCTAC | 1.31 RPM ratio (pull-down/input)
GATGATTGTTCTCCCAGCTGATGAATTTGTTCATTCGAGTAAACAAATTTTCCTAATCTTTCTGTTCAAGCGCCATCTAC | 1.2 RPM ratio (pull-down/input)
GATGATTGTTCTCCCAGCTGATGAATTCGGTTCATCGAGTAAACAAATTTTCCTAATCTTTCTGTTCAAGCGCCATCTAC | 0.902 RPM ratio (pull-down/input)
GATGATTGTTCTCCCAGCTGATGAATTCCTTCTTTCGAGTAAACAAATTTTCCTAATCTTTCTGTTCAAGCGCCATCTAC | 0.871 RPM ratio (pull-down/input)
GATGATTGTTCTCCCAGCTGATGAATTTCTCTGTTCGAGTAAACAAATTTTCCTAATCTTTCTGTTCAAGCGCCATCTAC | 0.866 RPM ratio (pull-down/input)
GATGATTGTTCTCCCAGCTGATGAATTCCTTAGATCGAGTAAACAAATTTTCCTAATCTTTCTGTTCAAGCGCCATCTAC | 0.924 RPM ratio (pull-down/input)
GATGATTGTTCTCCCAGCTGATGAATTCCAGACATCGAGTAAACAAATTTTCCTAATCTTTCTGTTCAAGCGCCATCTAC | 0.854 RPM ratio (pull-down/input)
GATGATTGTTCTCCCAGCTGATGAATTTGATTTATCGAGTAAACAAATTTTCCTAATCTTTCTGTTCAAGCGCCATCTAC | 1.23 RPM ratio (pull-down/input)
GATGATTGTTCTCCCAGCTGATGAATTCCGGCGTTCGAGTAAACAAATTTTCCTAATCTTTCTGTTCAAGCGCCATCTAC | 0.845 RPM ratio (pull-down/input)
GATGATTGTTCTCCCAGCTGATGAATTGGGCCAGTCGAGTAAACAAATTTTCCTAATCTTTCTGTTCAAGCGCCATCTAC | 0.751 RPM ratio (pull-down/input)
GATGATTGTTCTCCCAGCTGATGAATTTTACAACTCGAGTAAACAAATTTTCCTAATCTTTCTGTTCAAGCGCCATCTAC | 0.897 RPM ratio (pull-down/input)
GATGATTGTTCTCCCAGCTGATGAATTGAGAATGTCGAGTAAACAAATTTTCCTAATCTTTCTGTTCAAGCGCCATCTAC | 0.853 RPM ratio (pull-down/input)
GATGATTGTTCTCCCAGCTGATGAATTGTCGCAGTCGAGTAAACAAATTTTCCTAATCTTTCTGTTCAAGCGCCATCTAC | 1.08 RPM ratio (pull-down/input)
GATGATTGTTCTCCCAGCTGATGAATTGTACTATTCGAGTAAACAAATTTTCCTAATCTTTCTGTTCAAGCGCCATCTAC | 1.03 RPM ratio (pull-down/input)

Sequence | binding signal
GATGATTGTTCTCCCAGCTGATGAATTCTCTATTTCGAGTAAACAAATTTTCCTAATCTTTCTGTTCAAGCGCCATCTAC | 0.982 RPM ratio (pull-down/input)
GATGATTGTTCTCCCAGCTGATGAATTTCAAAAGTCGAGTAAACAAATTTTCCTAATCTTTCTGTTCAAGCGCCATCTAC | 0.756 RPM ratio (pull-down/input)
GATGATTGTTCTCCCAGCTGATGAATTCTTGCAGTCGAGTAAACAAATTTTCCTAATCTTTCTGTTCAAGCGCCATCTAC | 0.865 RPM ratio (pull-down/input)
GATGATTGTTCTCCCAGCTGATGAATTGTAGTCGTCGAGTAAACAAATTTTCCTAATCTTTCTGTTCAAGCGCCATCTAC | 0.963 RPM ratio (pull-down/input)
GATGATTGTTCTCCCAGCTGATGAATTGATACTTTCGAGTAAACAAATTTTCCTAATCTTTCTGTTCAAGCGCCATCTAC | 1.27 RPM ratio (pull-down/input)
GATGATTGTTCTCCCAGCTGATGAATTCGTAGGATCGAGTAAACAAATTTTCCTAATCTTTCTGTTCAAGCGCCATCTAC | 0.944 RPM ratio (pull-down/input)
GATGATTGTTCTCCCAGCTGATGAATTCGGAGAGTCGAGTAAACAAATTTTCCTAATCTTTCTGTTCAAGCGCCATCTAC | 0.747 RPM ratio (pull-down/input)
GATGATTGTTCTCCCAGCTGATGAATTCCCGCTTTCGAGTAAACAAATTTTCCTAATCTTTCTGTTCAAGCGCCATCTAC | 0.937 RPM ratio (pull-down/input)
GATGATTGTTCTCCCAGCTGATGAATTTTCAGACTCGAGTAAACAAATTTTCCTAATCTTTCTGTTCAAGCGCCATCTAC | 0.855 RPM ratio (pull-down/input)
GATGATTGTTCTCCCAGCTGATGAATTCCTGAGGTCGAGTAAACAAATTTTCCTAATCTTTCTGTTCAAGCGCCATCTAC | 0.755 RPM ratio (pull-down/input)
GATGATTGTTCTCCCAGCTGATGAATTGCTATATTCGAGTAAACAAATTTTCCTAATCTTTCTGTTCAAGCGCCATCTAC | 1.3 RPM ratio (pull-down/input)
GATGATTGTTCTCCCAGCTGATGAATTCGCGATATCGAGTAAACAAATTTTCCTAATCTTTCTGTTCAAGCGCCATCTAC | 0.926 RPM ratio (pull-down/input)
GATGATTGTTCTCCCAGCTGATGAATTAAGTAGATCGAGTAAACAAATTTTCCTAATCTTTCTGTTCAAGCGCCATCTAC | 0.866 RPM ratio (pull-down/input)
GATGATTGTTCTCCCAGCTGATGAATTCAGTCGATCGAGTAAACAAATTTTCCTAATCTTTCTGTTCAAGCGCCATCTAC | 0.79 RPM ratio (pull-down/input)
GATGATTGTTCTCCCAGCTGATGAATTTAAAGGCTCGAGTAAACAAATTTTCCTAATCTTTCTGTTCAAGCGCCATCTAC | 1.02 RPM ratio (pull-down/input)
GATGATTGTTCTCCCAGCTGATGAATTGCACGGCTCGAGTAAACAAATTTTCCTAATCTTTCTGTTCAAGCGCCATCTAC | 1.01 RPM ratio (pull-down/input)
GATGATTGTTCTCCCAGCTGATGAATTTGATATGTCGAGTAAACAAATTTTCCTAATCTTTCTGTTCAAGCGCCATCTAC | 1 RPM ratio (pull-down/input)
GATGATTGTTCTCCCAGCTGATGAATTCTTTACCTCGAGTAAACAAATTTTCCTAATCTTTCTGTTCAAGCGCCATCTAC | 0.909 RPM ratio (pull-down/input)
GATGATTGTTCTCCCAGCTGATGAATTGAGTTTTTCGAGTAAACAAATTTTCCTAATCTTTCTGTTCAAGCGCCATCTAC | 0.981 RPM ratio (pull-down/input)
GATGATTGTTCTCCCAGCTGATGAATTGCCTTGATCGAGTAAACAAATTTTCCTAATCTTTCTGTTCAAGCGCCATCTAC | 0.985 RPM ratio (pull-down/input)
GATGATTGTTCTCCCAGCTGATGAATTGGCACTGTCGAGTAAACAAATTTTCCTAATCTTTCTGTTCAAGCGCCATCTAC | 0.856 RPM ratio (pull-down/input)

Sequence | binding signal
GATGATTGTTCTCCCAGCTGATGAATTTTATCACTCGAGTAAACAAATTTTCCTAATCTTTCTGTTCAAGCGCCATCTAC | 0.979 RPM ratio (pull-down/input)
GATGATTGTTCTCCCAGCTGATGAATTCTTGTACTCGAGTAAACAAATTTTCCTAATCTTTCTGTTCAAGCGCCATCTAC | 0.981 RPM ratio (pull-down/input)
GATGATTGTTCTCCCAGCTGATGAATTCCGGATCTCGAGTAAACAAATTTTCCTAATCTTTCTGTTCAAGCGCCATCTAC | 0.742 RPM ratio (pull-down/input)
GATGATTGTTCTCCCAGCTGATGAATTCCAGGACTCGAGTAAACAAATTTTCCTAATCTTTCTGTTCAAGCGCCATCTAC | 0.746 RPM ratio (pull-down/input)
GATGATTGTTCTCCCAGCTGATGAATTTAGAGTTTCGAGTAAACAAATTTTCCTAATCTTTCTGTTCAAGCGCCATCTAC | 1.01 RPM ratio (pull-down/input)
GATGATTGTTCTCCCAGCTGATGAATTAATGGCATCGAGTAAACAAATTTTCCTAATCTTTCTGTTCAAGCGCCATCTAC | 1.14 RPM ratio (pull-down/input)
GATGATTGTTCTCCCAGCTGATGAATTCTTCCAGTCGAGTAAACAAATTTTCCTAATCTTTCTGTTCAAGCGCCATCTAC | 0.776 RPM ratio (pull-down/input)
GATGATTGTTCTCCCAGCTGATGAATTTTGATATTCGAGTAAACAAATTTTCCTAATCTTTCTGTTCAAGCGCCATCTAC | 1.19 RPM ratio (pull-down/input)
GATGATTGTTCTCCCAGCTGATGAATTCCTCAGATCGAGTAAACAAATTTTCCTAATCTTTCTGTTCAAGCGCCATCTAC | 0.761 RPM ratio (pull-down/input)
GATGATTGTTCTCCCAGCTGATGAATTAACACGATCGAGTAAACAAATTTTCCTAATCTTTCTGTTCAAGCGCCATCTAC | 0.998 RPM ratio (pull-down/input)
GATGATTGTTCTCCCAGCTGATGAATTATCAACCTCGAGTAAACAAATTTTCCTAATCTTTCTGTTCAAGCGCCATCTAC | 0.959 RPM ratio (pull-down/input)
GATGATTGTTCTCCCAGCTGATGAATTGGAGCGCTCGAGTAAACAAATTTTCCTAATCTTTCTGTTCAAGCGCCATCTAC | 0.802 RPM ratio (pull-down/input)
GATGATTGTTCTCCCAGCTGATGAATTATCTGCGTCGAGTAAACAAATTTTCCTAATCTTTCTGTTCAAGCGCCATCTAC | 1.08 RPM ratio (pull-down/input)
GATGATTGTTCTCCCAGCTGATGAATTGGATAGATCGAGTAAACAAATTTTCCTAATCTTTCTGTTCAAGCGCCATCTAC | 0.87 RPM ratio (pull-down/input)
GATGATTGTTCTCCCAGCTGATGAATTGTACCAATCGAGTAAACAAATTTTCCTAATCTTTCTGTTCAAGCGCCATCTAC | 1.07 RPM ratio (pull-down/input)
GATGATTGTTCTCCCAGCTGATGAATTAAGAAAGTCGAGTAAACAAATTTTCCTAATCTTTCTGTTCAAGCGCCATCTAC | 0.842 RPM ratio (pull-down/input)
GATGATTGTTCTCCCAGCTGATGAATTCAGACAATCGAGTAAACAAATTTTCCTAATCTTTCTGTTCAAGCGCCATCTAC | 1.15 RPM ratio (pull-down/input)
GATGATTGTTCTCCCAGCTGATGAATTACTCTTTTCGAGTAAACAAATTTTCCTAATCTTTCTGTTCAAGCGCCATCTAC | 1.08 RPM ratio (pull-down/input)
GATGATTGTTCTCCCAGCTGATGAATTGTGTAGTTCGAGTAAACAAATTTTCCTAATCTTTCTGTTCAAGCGCCATCTAC | 1.38 RPM ratio (pull-down/input)
GATGATTGTTCTCCCAGCTGATGAATTCATTGATTCGAGTAAACAAATTTTCCTAATCTTTCTGTTCAAGCGCCATCTAC | 1.03 RPM ratio (pull-down/input)
GATGATTGTTCTCCCAGCTGATGAATTATGCGAGTCGAGTAAACAAATTTTCCTAATCTTTCTGTTCAAGCGCCATCTAC | 0.95 RPM ratio (pull-down/input)
